Binding signal data for 22 molecules are collected here from publication PMC12136788.

Some of the results follow.

First the molecules themselves.
T1: UNK ZnF1-3 (human, UniProt Q9C0B0 31-174)
T1 sequence: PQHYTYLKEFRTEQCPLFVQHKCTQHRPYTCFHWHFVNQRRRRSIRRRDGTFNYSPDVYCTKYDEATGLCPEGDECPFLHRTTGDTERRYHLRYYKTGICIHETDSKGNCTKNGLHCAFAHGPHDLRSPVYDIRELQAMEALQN

B1: chr16:4561903:4561904:-_ENSG00000089486_ENST00000567695|hu_hu|motif|central (ssRNA)
RNA: GGGAGUUCUACAGUCCGACGAUCAGGCAUGGCCUGAAAGGGGGUCUGCACACUGACUCAAAGGGACAAGUUCCUUCUUAGCGGCCAGGGUCUGAUCAUUCACCCAGGUACAGUGUCCUCUCUACCUGACACCAGGCAGCUCUCCAACAGAGGAUUGAGCAUCA
B2: chr2:30258285:30258286:-_ENSMUSG00000026853_ENSMUST00000028207|mus_hu|FALSE|FALSE (ssRNA)
RNA: GGGAGUUCUACAGUCCGACGAUCGGCCUCCAUGGGGUUAUAGCAGACACCGUAGCCGUCGGGGACCACGGGCCCGAAGAACAUGACACAGUCUGUCUUGGCAGGGACCUGGCUGGUGGAGAGGUGGAAGUGCAUGGCGAUGGCCAACAGAGGAUUGAGCAUCA
B3: chr1:174052150:174052151:+_ENSMUSG00000026553_ENSMUST00000135192|mus_mus|FALSE|FALSE (ssRNA)
RNA: GGGAGUUCUACAGUCCGACGAUCCCUUCUGUCUCGUACUGGAAUUGACAGGAAGGUGGUGGGAAGGGAGGAGUAUAUACUAAGAAUCUGAUAAACAAAUGGCCAGCACAUAGUUUUCAUUGUUCCUUGGAAGGCCUAAGCUGACAACAGAGGAUUGAGCAUCA
B4: chr11:2981123:2981124:-_ENSG00000205531_ENST00000380542|hu_hu|FALSE|FALSE (ssRNA)
RNA: GGGAGUUCUACAGUCCGACGAUCCUUGUAGGUUUUUGUCAGGACUGAGUUGGUAAAGUAGUCGUUGGGUUCAAAGUGGAACUCUAACACAAAAGACAUAGGCUGUCCAGGGUCAGAAAAUUUCACUUUAAUAUCCUGCAGGUGCAACAGAGGAUUGAGCAUCA
B5: chr4:48853911:48853912:+_ENSG00000109180_ENST00000264312|hu_hu|motif|central (ssRNA)
RNA: GGGAGUUCUACAGUCCGACGAUCAGCAGAUUCAUUCAUAGAAGAACUGAAUGGAAUUGGCUCAUAAUGAGGAAGCAUUUCGGUGUUGUCUGCUGCUGGGGAUGUCACAAAAGAUGAUUGACCACUCACACUUGAGUCAUAUUUCAACAGAGGAUUGAGCAUCA
B6: chr11:100882373:100882374:+_ENSMUSG00000019302_ENSMUST00000044721|mus_mus|mus_mus_mus_hu_True|1_68 (ssRNA)
RNA: GGGAGUUCUACAGUCCGACGAUCUUCCUGGUUUGUGUUGAUUUCCUUCAGUUCAUUUUCAAUCUUCUCGAAAUUGGCCUCUAAGUCAAUCAUGUCCCGGGGGAAGGGAACCUCUGGGUUUUCACCGGUGUCCAUAAUUGGGAUCAACAGAGGAUUGAGCAUCA
B7: chr4:115894766:115894767:+_ENSMUSG00000028698_ENSMUST00000030464|mus_hu|mus_mus_mus_hu_True|38_98 (ssRNA)
RNA: GGGAGUUCUACAGUCCGACGAUCUUCCACACGGAAAGUACUUGGGGGUUUUCCAACGGCCAGUACCAGUCCGGCCAAACUACCCGAACAGGGUCCUGUCCUCCUCUCCUACAGAACACAACAAAAUGCCCCCGAACUUUCAAGCAACAGAGGAUUGAGCAUCA
B8: chr13:36245089:36245090:+_ENSG00000172915_ENST00000537702|perfect_dup|motif|central (ssRNA)
RNA: GGGAGUUCUACAGUCCGACGAUCGUUCUUCCUUUAUCUUCAGUAUCUGUUCUGAUGCUCAUAAUGCCACCGAUUAAAAUCGGUAUUAAAAGCUACAAUGCUACCAGAAGCCAUGCCAGUGAUCAGAGUCCUCUGGUCAUGGGACAACAGAGGAUUGAGCAUCA
B9: chr7:135612270:135612271:-_ENSG00000105887_ENST00000393085|hu_mus|hu_hu_hu_mus_False|1_88 (ssRNA)
RNA: GGGAGUUCUACAGUCCGACGAUCGUUUUUUUCUGAGAUGUUAAAUAUUCAGUGGAGGGAAAACAAAACUUAACCUUUUAUUAAUGCGUGUUGUACCAAAAGCAGACAUUUUAGCUUCAUUUAUUCAAAAAUAUUAAGAACAUUCAACAGAGGAUUGAGCAUCA
B10: chr19:16212804:16212805:+_ENSG00000167460_ENST00000300933|hu_mus|hu_hu_hu_mus_False|68_88 (ssRNA)
RNA: GGGAGUUCUACAGUCCGACGAUCAACAAUUCUGGAGUGAAGGAAAGCAUCAAGGAUGAACAGCAUUCCAUCUAUUACAGAAGGCACAUGGGCAACAAUGAUCACCCCAGCAUUCUCGCUUGGAAUGCUUAAAGACAAUCUGUUCAACAGAGGAUUGAGCAUCA
B11: chr2:181922443:181922444:+_ENSG00000170035_ENST00000410062|hu_mus|FALSE|FALSE (ssRNA)
RNA: GGGAGUUCUACAGUCCGACGAUCAACACCACCUUCAUAUACAGAACCUGGUGGACCAAGUAUAGUUGACCUCCAUUCAUAAAUGUUAUCUCCUUUAGGCCCAGCACUGCAGUUAGGAGGAGGAUCAAGGGUUAUCUCUGCUAGCAACAGAGGAUUGAGCAUCA
B12: chr3:176767854:176767855:-_ENSG00000177565_ENST00000430069|hu_hu|hu_hu_hu_mus_False|38_108 (ssRNA)
RNA: GGGAGUUCUACAGUCCGACGAUCGACAUCCUUGUUGCUGGGCACGUCCUGCCCUCCUUCCCGUAUGCAGUGUCUAAGCACGAGCUGCGUAGGGCCACUGGUGCUGUUCUCACUGAGGUUCCAGAUUCUUGCCGUGGAGUCUCCCAACAGAGGAUUGAGCAUCA
B13: 23952904_23953024_1872_CDS_ENSMUSG00000039218_ENSMUST00000088621|mouse|control|control (ssRNA)
RNA: GGGAGUUCUACAGUCCGACGAUCGCCACUUCUCCUGGCUGGUGUUCUGGACCUAGACCUACCACUUCUCCUAGCUUGGGAUCUACUCCGAGACCUCCUUCGAACUGGUGAUCGUGUCCUAGACCUGCGGCGAGCGGGUGUUCUCAACAGAGGAUUGAGCAUCA
B14: 4694108_4694228_2005_3pUTR_ENSMUSG00000066324_ENSMUST00000084949|mouse|control|control (ssRNA)
RNA: GGGAGUUCUACAGUCCGACGAUCAUCCUGAUCAGUGGAGAAAGGAUGAACAAUGGCCCCUUUCAUAGGGAAAUGAAAAUCAACUGCAACACUCAGACAAUUCCAGUAUAAUUCAGUCAUCUGUCUACCUUCUACCAGCUGGUCCAACAGAGGAUUGAGCAUCA
B15: chr1:220369670:220369671:-_ENSG00000118873_ENST00000358951|hu_mus|FALSE|FALSE (ssRNA)
RNA: GGGAGUUCUACAGUCCGACGAUCGAAGCCAGUGAACGGACUGGAGCCCACAGUGAUGUACUGAGACAUGGCAGGCGGACUGUUUUUAAUUGCUGCAUUAAAUCCACCUAUAUUGGAAGCAGUCUUCAUUUGAUCAAAUGGUGACAACAGAGGAUUGAGCAUCA
B16: chr12:48362563:48362564:+_ENSG00000134291_ENST00000256686|hu_hu|hu_hu_hu_mus_False|1_98 (ssRNA)
RNA: GGGAGUUCUACAGUCCGACGAUCUCCGUCAAGCCCUUCAAGCCCCACUUGCGGGGGAAACUGUAAUCACUUUGUAUGGGGAAGGAAAAGAAACGCCAAAAACUUUCCAAAAAGCGGGGGUGGGGUGAGGCGGGAGGUUGGGAACAACAGAGGAUUGAGCAUCA
B17: chr2:33267772:33267773:-_ENSMUSG00000068966_ENSMUST00000091037|mus_mus|FALSE|FALSE (ssRNA)
RNA: GGGAGUUCUACAGUCCGACGAUCCAUCCUUCCAGUGUAACAGAAGGAGAGCAACUGCUCAAACACGCUGGGGUUCUUAAUCACAGAGAUCGACAAGCCACUCAUAGUGCUCAGUGCUGAAUGGUCCCGGAAAUACGGGGAGCUCAACAGAGGAUUGAGCAUCA
B18: chr7:54823571:54823572:-_ENSG00000132432_ENST00000352861|hu_mus|hu_hu_hu_mus_False|88_98 (ssRNA)
RNA: GGGAGUUCUACAGUCCGACGAUCUCCCAUGAUAGCAAAUCCUAUUGCUGUUGCCAUGGCAAUCUUCUGGAAUUCUUUUCUGUCGGGUUUGGUGCAUCUUUUAACCAGCCGAAUUGAGUCCUUUACAAACUGCCGGCUGGGCUCCAACAGAGGAUUGAGCAUCA
B19: chr16:14041815:14041816:+_ENSG00000175595_ENST00000311895|hu_hu|motif|central (ssRNA)
RNA: GGGAGUUCUACAGUCCGACGAUCGGGGCACCAGAGAAUCCGUAGUCUGGGGAAGUGAAGUGUAAGAAGAGUGAGUUUGGAACGGAUGUCAUUGCUGGAGAUCUCCUGAAACAAGGCACCUCGGGAAGUGAGAGAGAAAGGCUUCAACAGAGGAUUGAGCAUCA
B20: chr1:39494447:39494448:+_ENSG00000168653_ENST00000372967|hu_mus|hu_hu_hu_mus_False|48_108 (ssRNA)
RNA: GGGAGUUCUACAGUCCGACGAUCGCAUCGACCAGCCUUCUUAUAGGGCUGUUCUGCGCUUAGGAACAUAAAGUGCCGGUCCAGGCUAAGGCCGAACUUUUUCUGUAUGUCAAGGAAAGGCAUGGCUCUGCAGUGCCCUUGUCACAACAGAGGAUUGAGCAUCA
B21: chr17:64801638:64801639:+_ENSG00000154229_ENST00000413366|hu_mus|hu_hu_hu_mus_False|28_58 (ssRNA)
RNA: GGGAGUUCUACAGUCCGACGAUCUAUAUAUAUAUAUACAUAUGUACACAUAUAUAGUAAAACCCUAGUUAAACGUGUAAACUAGCCAUUCAUUUUUAAAAUUACAUCUACAUUUAAAAAUUAAUAUAUCUGAUAGAGUGCCAGCAACAGAGGAUUGAGCAUCA
B22: chr7:141450121:141450122:+_ENSG00000106028_ENST00000265304|hu_mus|FALSE|FALSE (ssRNA)
RNA: GGGAGUUCUACAGUCCGACGAUCUCAUCCGUUCUAUGCCUUUUCUUUUGUCUGGUCACUCAGAAAUAUAAUGUUAUCAGCUAUGAUUGUUGUUGCUUGCCGCCUCACAUUGUUUUUAUCCAUGUACUCGCCAUAGUCCACUUUCAACAGAGGAUUGAGCAUCA

The assay concerns the target T1, UNK ZnF1-3. As to the kind of experiment: nsRBNS (natural sequence RNA bind-n-seq); RBNS binding buffer (assumed for nsRBNS): 25 mM Tris pH 7.5, 150 mM KCl, 3 mM MgCl2, 0.01% Triton X-100, 500 ug/ml BSA, 20 U/ml SUPERase-In, 4 C; UNK is unkempt and MSI1 is Musashi-1; names of the RNAs are library labels; protein concentration not given here; high values mean tight binding.
Molecule B1 gave a binding signal of 0.921 enrichment R. For B2 the value was 1.21 enrichment R; for B3, 1.26 enrichment R; for B4, 1.06 enrichment R. In the case of B5 it was 1.93 enrichment R; in that of B6, 0.507 enrichment R. As to B7, the binding signal amounted to 1.06 enrichment R. B8 displayed a binding signal of 1.05 enrichment R. Take B9: the binding signal was 2.09 enrichment R. Molecule B10 registered a binding signal of 1.23 enrichment R. In the case of B11 it was 2.02 enrichment R; in that of B12, 0.553 enrichment R; in that of B13, 0.856 enrichment R. In the case of B14 it was 1.24 enrichment R; in that of B15, 0.893 enrichment R.

Turning to B16, the binding signal came out at 1.93 enrichment R.

Molecule B17 had a binding signal of 1.67 enrichment R.

The molecule B18 displayed a binding signal of 0.604 enrichment R. Regarding B19, the binding signal is 2.12 enrichment R.

The molecule B20 displayed a binding signal of 0.807 enrichment R. B21 showed a binding signal of 1.56 enrichment R. For B22 the value was 0.387 enrichment R.
